# Data: PubChem BioAssay AID485294 (National Center for Advancing Translational Sciences (NCATS), 2010)
# The campaign covered roughly 370,000 compounds. About 150 (0.041%) were called active. This list was built around the results that the source calls inconclusive (neither active nor inactive); the mix of calls is not that of the screen. The call rests on the fitted dose curve; in most records, active means well fitted inhibition curve with a large enough effect; inconclusive means small, poorly fitted or top-dose-only effect; inactive means flat fitted curve, though single readings scatter. Potencies of inconclusive entries are left out as doubtful fits.
# Molecular target: Beta-lactamase (Escherichia coli (strain K12)) (UniProt P00811)
# Assay: qHTS Inhibitors of AmpC Beta-Lactamase (assay with detergent); further: nearly all actives have a fitted effect of over 25% in size;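 on activity change, negative = inhibition: 0% = no-compound wells and -100% = no-enzyme wells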
# Details: AmpC hydrolysis of nitrocefin, absorbance 480 nm, 0.01% Triton; activity change, negative = inhibition: at 114 µM (top of the series)
# Summary of the method: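 20 mM phosphate pH 7.0 + 0.01% (detergent screen) or 0.0001% Triton X-100; 5.3 nM AmpC reagent; cpd preinc 15 min RT; nitrocefin (800 uM stock) to start; A480 q20 s × 4 min; Activity was normalised to no-enzyme and no-compound control wells.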
# Potency means the concentration at half of the fitted maximal effect; tags describe the fitted curve by direction and shape.
# Sequence of UniProt P00811 (P00811 whole entry, looked up): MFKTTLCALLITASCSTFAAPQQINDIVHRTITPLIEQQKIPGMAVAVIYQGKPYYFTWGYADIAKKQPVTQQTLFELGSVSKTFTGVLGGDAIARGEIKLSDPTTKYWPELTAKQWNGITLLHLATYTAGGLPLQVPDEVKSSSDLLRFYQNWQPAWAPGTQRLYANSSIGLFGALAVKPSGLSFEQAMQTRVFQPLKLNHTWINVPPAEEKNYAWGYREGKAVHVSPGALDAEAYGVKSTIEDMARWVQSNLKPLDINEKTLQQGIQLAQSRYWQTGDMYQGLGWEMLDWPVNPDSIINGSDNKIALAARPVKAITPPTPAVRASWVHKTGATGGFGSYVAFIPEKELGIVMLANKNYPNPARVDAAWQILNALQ
Structure (SMILES),Potency,"activity change, negative = inhibition"
O=C(c1ccco1)N1CCN(C(=O)c2cc(Cl)nc3ccccc23)CC1,"inconclusive [inhibitor, full curve, poor fit]",
CCSc1nc(N2CCOCC2)c2c(c1C#N)CCCC2,"inconclusive [inhibitor, full curve, poor fit]",
CC1(c2ccc3ccccc3c2)NC(=O)N(CC(=O)N2CCN(S(=O)(=O)c3ccccc3F)CC2)C1=O (stereo not given),,inactive: -0.057%
OC(CNCCc1ccccc1)c1ccccc1 (stereo not given),"inconclusive [inhibitor, full curve, poor fit]",
COc1ccc(CN2CCC(=O)N([C@H](CO)CC(C)C)CC2)cc1OC,"inconclusive [inhibitor, full curve]",
Cc1cc(/C=C(/C#N)C(=O)O)c(C)n1-c1cccc2ccccc12,,inactive: -1.39%
O=C(CCCn1c(=O)c2cccn2c2ccccc21)NCc1ccccc1Br,,inactive: 22.8%
COC(=O)C1=C(C)N(Cc2ccccc2)C(=NCc2cccc(Cl)c2)N[C@H]1c1cccc(F)c1,,inactive: -15%
COc1ccc2c(c1)c(C(=O)CN1CCC3(CC1)OCCO3)c(C)n2C,,inactive: -10.8%
CC(C(=O)C12CC3CC(CC(C3)C1)C2)N1CCOCC1 (stereo not given),,inactive: -10.1%
O=C(Cc1ccccc1)N/N=C/c1ccccc1Cl,,inactive: -13.2%
COc1ccccc1-c1nc(-c2ccccc2)[nH]c(=O)c1C#N,,inactive: 9.7%
Fc1ccc(NC(=S)NCCc2ccc(Cl)cc2)cc1,,inactive: 3.84%
CCOC(=O)C1=C(C)C(c2ccccc2OC)NC(=S)N1 (stereo not given),"inconclusive [inhibitor, full curve]",
COc1ccc2cc(C3CC(c4ccco4)=NN3S(=O)(=O)c3ccccc3)c(Cl)nc2c1 (stereo not given),,inactive: 1.72%
N#Cc1ncc(-c2ccc3c(c2)OCCOCCOCCOCCO3)nc1C#N,"inconclusive [inhibitor, partial curve, poor fit]",
COC(=O)c1cc(OC(=O)CCc2ccc(OC)c(OC)c2)cc(C(=O)OC)c1,"inconclusive [inhibitor, partial curve]",
O=C(CCNC(=O)C1CCN(S(=O)(=O)c2ccc(F)cc2)CC1)NCc1cccnc1,"inconclusive [inhibitor, full curve, poor fit]",
O=C(Nc1ccc(NC(=O)c2cc([N+](=O)[O-])ccc2N2CCOCC2)cc1)c1cccs1,"inconclusive [inhibitor, single point]",
O=C(Nc1ccccc1N1CCN(C(=O)c2ccccc2)CC1)c1ccc(Br)o1,,inactive: 2.36%
O=C(CCCN1C(=O)/C(=C/c2ccccc2)SC1=S)N1CCOCC1,,inactive: 1.68%
CCc1cccc(CC)c1NC(=O)CCS(=O)(=O)c1ccc2c(c1)CCN2C(C)=O,,inactive: 0.657%
C=CCOC(=O)C1=C(C)NC(=O)NC1/C=C/c1ccccc1 (stereo not given),"inconclusive [inhibitor, partial curve]",

Structure (SMILES),Potency,"activity change, negative = inhibition"
COc1ccc(-c2nc(CCNC(=O)c3ccc(Br)o3)cs2)cc1,"inconclusive [inhibitor, partial curve]",
NC1=NC(=O)C(Cc2ccc(F)cc2)S1 (stereo not given),"inconclusive [inhibitor, partial curve, poor fit]",
c1ccc2[nH]c(CSc3nc4ccccc4s3)nc2c1,"inconclusive [inhibitor, full curve, poor fit]",
CCOC(=O)N1CCC(O)(c2cc(C)c(C)cc2C)CC1,"inconclusive [inhibitor, full curve, poor fit]",
CCCCCCn1c(SCC(=O)c2ccccc2)nc2c1c(=O)[nH]c(=O)n2C,"inconclusive [inhibitor, full curve, poor fit]",
O=[N+]([O-])c1nn(-c2cccc(Cl)c2)n(O)c1=NCc1cccnc1,"inconclusive [inhibitor, single point]",
O=C(CCCN1CCC2(CC1)C(=O)NCN2c1ccccc1)c1ccc(F)cc1,"inconclusive [inhibitor, full curve]",
O=C(Cn1nc2ccccc2n1)N/N=C/c1cc([N+](=O)[O-])ccc1O,,inactive: -6.25%
COCCNC(=O)CN1C(=O)c2cccnc2Oc2ccc(Cl)cc21,,inactive: 3.77%
CC(C)CC1(C(=O)NCCc2c[nH]c3ccccc23)C=CCN1C(=O)c1ccccc1 (stereo not given),"inconclusive [inhibitor, full curve, poor fit]",
CCn1c(=O)c(C(=O)CN(C)Cc2cccc(OC)c2OC)c(N)n(Cc2ccccc2)c1=O,"inconclusive [inhibitor, full curve, poor fit]",
NC(=O)c1ccsc1NC(=O)CSc1nnc(Nc2ccccc2)s1,,inactive: 1.97%
O=C(O)CCN(CCC(=O)O)c1nnc(SCc2ccccc2)s1,"inconclusive [inhibitor, full curve]",
COC(=O)c1c(-c2ccc3ccccc3c2)csc1NC(=O)Cc1ccc(OC)c(OC)c1,,inactive: 2.68%
CSc1nnc2c(n1)OC(c1ccc(C(=O)O)cc1)N(C(C)=O)c1ccccc1-2 (stereo not given),"inconclusive [inhibitor, full curve, poor fit]",
CC(=NCCC(c1ccccc1)c1ccccc1)c1c(O)n(C)c(=O)n(C)c1=O,"inconclusive [inhibitor, full curve, poor fit]",
O=C(CN(C(=O)CNS(=O)(=O)c1ccc(F)cc1)c1cccc(F)c1)NCC1CCCO1 (stereo not given),"inconclusive [inhibitor, partial curve, poor fit]",
COc1ccc(CCC(=O)N2c3ccccc3CC2C)cc1 (stereo not given),,inactive: -15%
CC(C)(C)C(=O)NC(=S)Nc1ccccc1C(=O)Nc1ccccc1,"inconclusive [inhibitor, full curve, poor fit]",
CCOC(=O)COc1cccc2c(=O)n(CC(=O)N3CCc4ccccc43)ccc12,"inconclusive [inhibitor, full curve, poor fit]",
Cc1cc(N2C(=O)C(=O)/C(=C(/O)c3ccc(F)cc3)C2c2cccc(Br)c2)no1 (stereo not given),,inactive: -12.4%
CCN(CC)C(=O)COc1cccc2ccccc12,"inconclusive [inhibitor, partial curve, poor fit]",
